# Test results reported in the antibiotic and cytotoxicity screens of Wong et al. (2023).
# The other results are listed elsewhere or left out.
# Tested on: HSkMC (human skeletal muscle cells)
# Assay: cytotoxicity call (relative viability < 0.9)
# Conditions: 10 µM
row,Compound,cytotoxicity call
1,C[C@@H]1CN([C@@H](C)CO)C(=O)Cc2cc(NC(=O)C3CC3)ccc2O[C@@H]1CN(C)Cc1ccc(C(=O)O)cc1,inactive
2,C[C@H]1CCCCO[C@@H](CN(C)C(=O)Cc2ccccc2)[C@@H](C)CN([C@@H](C)CO)C(=O)c2cc(NC(=O)CCC(F)(F)F)ccc2O1,inactive
3,C[C@@H]1CN([C@@H](C)CO)C(=O)c2cccc(NC(=O)C3CC3)c2O[C@@H]1CN(C)C(=O)Nc1ccc2c(c1)OCO2,inactive
4,Cn1nnc2c1[C@H](COCC1CC1)CN(C(=O)CS(C)(=O)=O)C2,inactive
5,COc1ccc(C#Cc2cnc3c(c2)C(=O)N([C@@H](C)CO)C[C@H](C)[C@H](CN(C)CC2CCOCC2)O3)cc1,inactive
6,CS(=O)(=O)N1[C@@H]2Cn3c(cccc3=O)[C@H]1[C@@H](C(=O)NCc1ccccc1)[C@@H]2CO,inactive
7,C[C@H](CO)N1C[C@H](C)[C@H](CN(C)S(=O)(=O)c2ccc(F)cc2)OCCCC[C@H](C)Oc2ccc(NC(=O)NC3CCCCC3)cc2C1=O,inactive
8,O=C(NC1CC1)c1n[nH]c(=O)c2ccccc12,inactive
9,c1ccc(CN(CC2=NCCN2)c2ccccc2)cc1,inactive
10,CCc1cc(C(N)=S)ccn1,inactive
11,COc1ccc(S(=O)(=O)N(C)C[C@@H]2OCCCC[C@@H](C)Oc3ccc(NC(=O)NC4CCCCC4)cc3C(=O)N([C@@H](C)CO)C[C@@H]2C)cc1,inactive
12,COC(=O)C1(C)CCCC2(C)c3ccc(C(C)C)cc3C(=O)CC12 (configuration not stated),inactive
13,Cc1ccc(S(=O)(=O)N(C)C[C@H]2Oc3ccc(NC(=O)Cn4cnnn4)cc3C(=O)N([C@H](C)CO)C[C@@H]2C)cc1,inactive
14,CCCNC(=O)N[C@@H]1C=C[C@@H](CC(=O)N2CCN(C)CC2)O[C@@H]1CO,inactive
15,COc1ccc(NC(=O)N(C)C[C@H]2OCCCC[C@@H](C)Oc3ccc(NC(=O)C4CCCCC4)cc3C(=O)N([C@@H](C)CO)C[C@@H]2C)cc1,inactive
16,COc1ccc2c3c(n(c2c1)C)[C@H](CO)N(C[C@]13CN(C1)C(=O)C1CC1)C(=O)CN1CCOCC1,inactive

row,Compound,cytotoxicity call
1,Cc1noc(C)c1NC(=O)Nc1cccc2c1O[C@@H](CN(C)C(=O)Nc1ccc(C(F)(F)F)cc1)[C@H](C)CN([C@H](C)CO)C2=O,inactive
2,O=c1/c(=C/c2cccc(Cl)c2)c2cccc3cccc1c32,inactive
3,C[C@H]1CN([C@@H](C)CO)C(=O)Cc2cc(NC(=O)CCN3CCOCC3)ccc2O[C@@H]1CN(C)S(=O)(=O)c1cccs1,inactive
4,C[C@@H]1CN([C@H](C)CO)C(=O)c2cc(NC(=O)Cn3cnnn3)ccc2O[C@H]1CN(C)Cc1ccc(C(=O)O)cc1,inactive
5,COc1ccc(S(=O)(=O)Nc2ccc3c(c2)C(=O)N([C@H](C)CO)C[C@@H](C)[C@@H](CN(C)Cc2ccc(C(=O)O)cc2)OCCCC[C@@H](C)O3)cc1,inactive
6,C[C@@H]1CN([C@H](C)CO)C(=O)c2cccc(NS(C)(=O)=O)c2O[C@H]1CN(C)S(=O)(=O)c1ccccc1,inactive
7,O=c1[nH]c(=S)nc2[nH][nH]cc1-2,inactive
8,C[C@@H]1CN([C@H](C)CO)C(=O)c2cc(C3=CCCC3)cnc2O[C@H]1CN(C)C(=O)Nc1ccc(C(F)(F)F)cc1,inactive
9,Cc1noc(C)c1S(=O)(=O)Nc1ccc2c(c1)C(=O)N([C@H](C)CO)C[C@H](C)[C@H](CN(C)Cc1ccc(Cl)c(Cl)c1)OCCCC[C@@H](C)O2,inactive
10,COCC(=O)N(C)C[C@@H]1Oc2cc(C#CCN(C)C)ccc2S(=O)(=O)N([C@@H](C)CO)C[C@H]1C,inactive
11,C[N+](C)(C)CC(O)CC(=O)[O-] (configuration not stated),inactive
12,C[C@@H]1CCCCO[C@H](CN(C)Cc2ccc(Cl)c(Cl)c2)[C@H](C)CN([C@H](C)CO)C(=O)c2cc(NC(=O)CCC(F)(F)F)ccc2O1,inactive
13,C[C@@H]1CN([C@@H](C)CO)C(=O)c2cccc(NC(=O)NC3CCCCC3)c2O[C@@H]1CN(C)C(=O)Nc1ccc(C(F)(F)F)cc1,active
14,CN(C)CCCN1C(=O)[C@@]2(Cc3ccccc31)c1ccccc1C(=O)N(C1CCCCC1)[C@H]2c1ccc(CO)cc1,inactive
15,O=C(O)c1ccc2cc(-c3ccc(O)c(C45CC6CC(CC(C6)C4)C5)c3)ccc2c1,inactive
16,COC(=O)c1c(CC[C@@H](CO)NC(=O)N[C@H](Cc2ccccc2)Cn2cc(-c3ccccn3)nn2)oc(C(C)=O)c1C(=O)OC,inactive
